Experimental findings from paper PMC12040169 (PLOS Biology, 2025) are described below.

The structures appear in SMILES notation. The list shows a part of the results.

The experiment relates to T1, C. trachomatis L2/434/Bu expressing GFP (CTL2-GFP).
T1 construct: L2/434/Bu GFP intracellular growth in HeLa cells
Also noted: species or system HeLa; C. trachomatis total inclusion area by high-content imaging, normalised to DMSO. The note with it: total inclusion area; 28.5 h, 10 µM; inhibitor. The gist of the method: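 After bulk GFP and resorufin fluorescence reads, cells were fixed, stained with Hoechst and imaged by high-content microscopy. Inclusion area and number (GFP) stood in for chlamydial growth, nuclei count (Hoechst) for host cell viability. MICs were derived as for the bulk readout.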
In the case of `O=C(c1ccc(Cl)cc1)c1ccc(OCC(=O)N2CCN(C(=O)c3ccco3)CC2)cc1` [CBK295658], the “% of control remaining” value amounted to 100.897.
The value for `Cc1nc(C(=O)NCC2CN3CCCN2CC3)ccc1C(=O)O` (stereo not drawn) [CBK304242] was 68.0649; that for `CCc1c(C)nc2ccccc2c1SCCC(=O)N(C)C` [CBK149718T] was 105.74.
Turning to `CN1CCN(C(=O)Nc2cccc(-c3nc(-c4ccc(C#N)cc4)cnc3N)c2)CC1` [CBK116251], the “% of control remaining” value was found to be 98.1415.
Take `Cc1cc(C(=O)N2CCn3cc(C(F)(F)F)nc3C2)on1` [CBK282430]: the “% of control remaining” value was 84.9141.
For the molecule `CCCSc1ncc(Cl)c(C(=O)Nc2ccc(C(=O)OC)cc2)n1` [CBK268824], the “% of control remaining” value is 71.7916.
The value for `CCN(CC)CCN(CCc1ccc(OC)c(OC)c1)C(=O)Nc1ccc(Cl)cc1` [CBK160510] was 74.0251; that for `Cc1ccn(-c2ccc(N3CCC(OC4CCCC4)CC3)nn2)n1` [CBK306301] was 30.1611.
As for `O=c1c(N2CCC(Sc3ccccc3)CC2)nccn1Cc1ccc([N+](=O)[O-])cc1` [CBK153654], the “% of control remaining” value is 93.3266.
In the case of `COc1ccc(-c2n[nH]c(=S)n2CC(=O)Nc2ccc(NC(=O)CC(C)C)cc2)cc1` [CBK295342], the “% of control remaining” value worked out at 94.3809.
In the case of `Cc1ccccc1CCNC(=O)CCc1c(C)nc2nc(N)nn2c1C` [CBK304994], the “% of control remaining” value was determined as 70.7353.
Under `COc1cc(C=Cc2nc3cc(Cl)ccc3s2)ccc1OCC(=O)O` [CBK297886] stands 69.2058.
Under `c1ccc2c(c1)n(CCN1CCOCC1)c1nc(C34CC5CC(CC(C5)C3)C4)cn21` [CBK278154C] stands 102.207; under `CC(=O)NC1(CC(=O)N2CC[C@H]3NC(=O)COc4ccccc4C/C=C/C[C@H]3C2)CCCCC1` [CBK292117], 113.503; under `Oc1cccc(-c2cncc(NCCCN3CCOCC3)n2)c1` [CBK037858], 106.369.
Under `O=C(NCc1cccnc1)c1ncoc1-c1cccs1` [CBK283974] stands 85.581; under `CO[C@@]12CC[C@H](OCC(=O)O)C[C@@H]1N(Cc1c(C)cnn1C)CC2` [CBK306638], 98.2314; under `CC1CCCCN1S(=O)(=O)c1ccc(-n2ncc(Cl)c(Cl)c2=O)cc1` (stereo not drawn) [CBK305035], 37.1774.
As to `CCCN(C(=O)CCn1c(=O)oc2cc(Cl)ccc21)C1CCNC1` (stereo not drawn) [CBK304311C], the “% of control remaining” value was found to be 51.4049.
Under `COc1ccc(CNC(=O)c2cc(S(=O)(=O)N3CCCCC3)cs2)cc1` [CBK307590] stands 93.6196; under `COCC1CCCN(Cc2cn(C)nc2C(C)(C)C)C1` (stereo not drawn) [CBK304818], 45.4846.
